This is one part of the list. Values were computed here from the reads of four pooled replicates and scatter widely.
The sequences below were run against T1, Pho4 (S. cerevisiae) (UniProt P07270) (assay: relative binding free energy (BET-seq); higher = weaker binding). Conditions: reference: library average.
T1 sequence: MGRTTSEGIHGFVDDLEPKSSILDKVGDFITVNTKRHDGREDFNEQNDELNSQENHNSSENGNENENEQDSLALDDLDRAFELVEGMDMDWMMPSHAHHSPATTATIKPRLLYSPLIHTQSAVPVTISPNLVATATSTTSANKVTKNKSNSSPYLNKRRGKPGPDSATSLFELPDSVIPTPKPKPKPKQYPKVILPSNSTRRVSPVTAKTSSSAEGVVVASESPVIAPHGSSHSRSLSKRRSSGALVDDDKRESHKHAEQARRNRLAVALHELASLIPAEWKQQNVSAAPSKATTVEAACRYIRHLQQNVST

Sequence | relative binding free energy [kcal/mol]
AATGTCACGTGGTGCG | -0.04
CAGGTCACGTGGATTG | 0.12
GATGGCACGTGTTTCA | 0.02
GATGACACGTGGTTTA | 0.07
ACTGGCACGTGGAAGT | -0.09
TGCGTCACGTGAGATT | 0.38
TCGTACACGTGAATTG | 0.44
GTATTCACGTGCGTAA | 0.26
TTAGCCACGTGGTTGG | -0.16
TGGGCCACGTGGTGCA | -0.1
GCGCGCACGTGGAGTG | -0.12
AGTGACACGTGGCTGT | -0.11
AAGTGCACGTGGCAGG | -0.09
GATATCACGTGTAGAG | 0.27
TGGGTCACGTGTATAA | -0.09
GATATCACGTGGGTCG | -0.11
TCTGGCACGTGGTCGA | -0.14
GTTGGCACGTGGGCAA | -0.18
TAGATCACGTGTCATG | 0.07
TTGTACACGTGTATTG | 0.14
GTTATCACGTGGACTT | 0.2
GTTTACACGTGAGTGC | 0.31
GGTGGCACGTGCAGGA | -0.02

Sequence | relative binding free energy [kcal/mol]
TAAGGCACGTGGAGGA | -0.09
CAAGTCACGTGGTAGA | 0.1
CGGAGCACGTGGGTAT | -0.28
TGTGTCACGTGACTTG | 0.05
TTTATCACGTGAAGCT | 0.28
GGTAGCACGTGAATTT | 0.41
GTGTGCACGTGGAAGA | 0.06
GTTTGCACGTGCGGGC | 0.1
ACGTACACGTGTAGTG | 0.02
AGAGACACGTGGGTGT | -0.16
TACTGCACGTGGATTT | 0.09
GTGGCCACGTGCGGGA | -0.02
TTGGCCACGTGTAGGT | -0.04
ATGTGCACGTGCTAGG | -0.21
ATATGCACGTGGGGGT | -0.21
CGCGACACGTGAGGGG | 0.22
CGTGGCACGTGATAGG | -0.06
TTGGGCACGTGTCCAT | 0
TGGGCCACGTGGTTCT | -0.25
AGAGCCACGTGGGGGT | -0.14
CGGTTCACGTGTGTCT | 0.29
AAGGACACGTGGCGGT | -0.04
GGTAGCACGTGTGACG | 0.05

Sequence | relative binding free energy [kcal/mol]
AGGAGCACGTGAGTGG | 0.25
GTGGACACGTGTTGGT | 0.03
TCCTGCACGTGGGGGC | -0.14
TTATACACGTGTAAAG | 0.2
AGTGGCACGTGTGTCG | -0.12
AGTGTCACGTGCGCTT | 0.04
TGATGCACGTGGGGTC | -0.07
TGTTCCACGTGTGTTG | 0
AGCTCCACGTGGGTGT | -0.07
GAGTACACGTGTGTTC | 0.23
ATGGTCACGTGGTTAC | -0.01
GGCGTCACGTGGGCGT | -0.03
GGAGTCACGTGGTCTG | 0.16
CTGTTCACGTGAGGAT | 0.3
CCGGGCACGTGGGAGT | -0.26
GGATACACGTGGGGAA | -0.04
GGGCACACGTGTGTAT | 0.03
TTTTTCACGTGGGCTT | 0.19
GTGTACACGTGGGCTA | -0.11
GAGTTCACGTGGTACG | 0.33
TTACACACGTGTTATT | 0.07
TACGTCACGTGTTCGG | 0
TGACTCACGTGTTTTG | 0.22

Sequence | relative binding free energy [kcal/mol]
GTTGACACGTGGTGGG | -0.12
ATATTCACGTGATGAT | 0.29
AAGGGCACGTGGCGGA | -0.21
AATAGCACGTGCGGTT | -0.04
AGGTTCACGTGAATAA | 0.58
GTTATCACGTGGGAAT | 0.15
GTGTCCACGTGGGTTG | -0.02
AGGTCCACGTGTGATT | 0.11
TTAGTCACGTGGGAGT | 0.02
TCGTGCACGTGTCGGG | 0.02
AGTTTCACGTGTTTTT | 0.36
AGGCACACGTGTTTGA | 0.1
GTTATCACGTGTATGT | 0.18
GGGATCACGTGTGGCA | 0.09
TGGGTCACGTGTATAT | 0.2
CAAGGCACGTGGCGTG | -0.25
ATGTACACGTGTCTTT | 0.17
AAAGTCACGTGAGATT | 0.24
TGCGTCACGTGACGTG | 0.18
ATACACACGTGGTTTT | 0
AGCTACACGTGCGGGG | 0.07
GAGTGCACGTGTCGGA | 0.18
CTTTGCACGTGAGAAG | 0.22

Sequence | relative binding free energy [kcal/mol]
GTGTACACGTGGTTCG | 0.04
GTTATCACGTGTCAGT | 0.29
GGACTCACGTGTTTAT | 0.38
AGTGCCACGTGTATAG | -0.1
TTGATCACGTGGCGGA | 0.06
GGTTCCACGTGGCTGT | 0.09
TGTGCCACGTGGGAAT | -0.08
GTATTCACGTGCTAGT | 0.22
TTTATCACGTGTAACG | 0.19
CGGGTCACGTGGTATA | 0.12
AATATCACGTGATTTA | 0.19
GAGGCCACGTGGTTTA | 0
CTGGGCACGTGTAGAT | 0.02
TAGGTCACGTGTTGAC | 0.05
CCTGTCACGTGGGTTG | -0.02
CTCGTCACGTGGGTGG | -0.1
TTATACACGTGATAGG | 0.11
TAGGGCACGTGAGCCG | 0.08
GCTAACACGTGGTGTG | 0.01
TATCTCACGTGTGGGT | 0.3
CTGAACACGTGGTAGG | -0.1
CAGTGCACGTGTGAGG | 0.03
AGCGTCACGTGTGCTG | 0.15
